Results published in the supplement of paper PMC3334620.
In all, about 33,000 sequences were measured (“E-score (-0.5 to 0.5)”: median about -0.043, highest 2% from about 0.37 on). This is one part of the list.

Biological target: T1, Upc2 (UniProt Q12151)
T1 sequence: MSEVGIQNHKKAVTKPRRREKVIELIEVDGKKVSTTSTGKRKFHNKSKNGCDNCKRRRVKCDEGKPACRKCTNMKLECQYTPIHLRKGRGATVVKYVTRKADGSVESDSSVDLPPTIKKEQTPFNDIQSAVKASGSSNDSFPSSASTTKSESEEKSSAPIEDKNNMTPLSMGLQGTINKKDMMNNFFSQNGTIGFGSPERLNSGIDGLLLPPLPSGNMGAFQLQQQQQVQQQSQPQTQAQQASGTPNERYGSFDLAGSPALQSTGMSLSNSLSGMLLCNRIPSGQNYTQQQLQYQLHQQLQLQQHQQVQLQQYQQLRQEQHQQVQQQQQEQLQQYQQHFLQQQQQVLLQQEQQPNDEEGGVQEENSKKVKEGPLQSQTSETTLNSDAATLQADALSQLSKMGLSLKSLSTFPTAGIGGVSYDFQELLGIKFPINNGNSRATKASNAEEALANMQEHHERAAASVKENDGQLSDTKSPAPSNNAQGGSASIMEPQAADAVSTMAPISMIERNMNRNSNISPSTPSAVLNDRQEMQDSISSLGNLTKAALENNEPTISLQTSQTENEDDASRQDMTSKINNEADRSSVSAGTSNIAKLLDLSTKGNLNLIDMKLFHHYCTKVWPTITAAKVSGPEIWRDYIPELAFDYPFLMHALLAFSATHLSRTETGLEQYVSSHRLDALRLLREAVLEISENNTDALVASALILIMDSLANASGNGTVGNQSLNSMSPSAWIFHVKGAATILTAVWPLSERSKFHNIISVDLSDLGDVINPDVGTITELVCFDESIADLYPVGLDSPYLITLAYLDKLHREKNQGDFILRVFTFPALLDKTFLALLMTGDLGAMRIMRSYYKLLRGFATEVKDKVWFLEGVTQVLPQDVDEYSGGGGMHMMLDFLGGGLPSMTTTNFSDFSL
Assay: PBM E-score (8-mer binding enrichment) (E-score (-0.5 to 0.5)); higher = stronger / more preferred TF binding; most listed sequences are background and not binding sites
Conditions: protein concentration: 200 nM; construct: GST-full length
Method: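 Universal 'all 10-mer' protein binding microarrays (Agilent AMADID 015681) probed with GST-tagged S. cerevisiae TFs (full-length or DBD) made by in vitro transcription/translation (PURExpress), about 100-200 nM. Bound TF was detected with fluorescent anti-GST. Each ungapped 8-mer (which stands for itself and its reverse complement) is scored by the PBM enrichment score (E-score), a modified Wilcoxon-Mann-Whitney statistic from -0.5 to +0.5, computed with the Universal PBM Analysis Suite. Scale: above 0.35 generally sequence-specific binding.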

Going from AAGTAGAG to GGGCTGAC, the “PBM E-score” value rises from -0.0604 to -0.0227.

Going from TAAAATGA to CCAGTGGC, the “PBM E-score” value falls from 0.0326 to -0.304.

Compared with GCCCGGCA, CTCAACGA is higher in “PBM E-score” value: -0.0915 for the first, 0.323 for the second.

First: ATGACGCA
Second: ATGGGAGG
The “PBM E-score” value of the first is higher: 0.0831 for the first, -0.164 for the second.

First: CGTGGCAC
Second: CAGAGTCC
The “PBM E-score” value of the first is higher: 0.03 for the first, -0.152 for the second.

Going from CCCAGCTC to GAATCCTC, the “PBM E-score” value rises from -0.348 to -0.152.

Compared with CCCTAGCC, CTTTAGGC is higher in “PBM E-score” value: -0.116 for the first, -0.0253 for the second.

Compared with ACGTACAA, ATCGTCTC is lower in “PBM E-score” value: 0.309 for the first, -0.067 for the second.

Going from ACTACTAC to TGCATGCA, the “PBM E-score” value falls from 0.135 to 0.0414.

Compared with AGCTCGTA, GCTTTCCC is lower in “PBM E-score” value: 0.473 for the first, -0.0723 for the second.

Going from CTTGTACC to CGGGTGTA, the “PBM E-score” value rises from -0.103 to 0.0853.

Compared with TACAGCGA, AAATGGCT is lower in “PBM E-score” value: 0.0182 for the first, -0.179 for the second.

Compared with ATTCAATG, AAGGTTAC is lower in “PBM E-score” value: 0.0611 for the first, 0.00672 for the second.

First: CGCGGCCG
Second: GTGCTTCA
The “PBM E-score” value of the first is higher: 0.0649 for the first, -0.104 for the second.

Compared with AATGTACG, AAGACAAT is lower in “PBM E-score” value: 0.36 for the first, -0.127 for the second.

Compared with CCTTCTAC, AGTATAGA is higher in “PBM E-score” value: 0.00675 for the first, 0.137 for the second.

First: ACAGTTCC
Second: GGGAAGCA
The “PBM E-score” value of the first is higher: -0.102 for the first, -0.132 for the second.

Going from CGCCAGCC to ACACTGGC, the “PBM E-score” value falls from 0.0291 to -0.00275.

First: CGGCGGAC
Second: ACGCCCCA
The “PBM E-score” value of the first is lower: -0.126 for the first, 0.0653 for the second.

Compared with CTTCTTGC, CGTTCCAG is higher in “PBM E-score” value: -0.127 for the first, 0.391 for the second.

Compared with TACAGAGA, ATCTCGGC is higher in “PBM E-score” value: -0.0478 for the first, 0.0485 for the second.

Compared with GCCCATTA, CAAAAAAC is lower in “PBM E-score” value: 0.133 for the first, 0.00984 for the second.

First: GACAAACC
Second: ACAATAAG
The “PBM E-score” value of the first is lower: -0.17 for the first, -0.0749 for the second.

Compared with GCAACTGC, CCAGAGAA is higher in “PBM E-score” value: 0.0352 for the first, 0.0427 for the second.

First: ACTTGGGG
Second: AATGCCCA
The “PBM E-score” value of the first is higher: -0.181 for the first, -0.275 for the second.

First: GACGACTA
Second: ACACTATC
The “PBM E-score” value of the first is lower: -0.171 for the first, -0.0183 for the second.

Going from TCACACCA to CCTCTCCA, the “PBM E-score” value falls from -0.00895 to -0.294.

Compared with CAGAATGC, AGCCGGTC is lower in “PBM E-score” value: -0.193 for the first, -0.272 for the second.

Going from GATCCACA to AAATTCCG, the “PBM E-score” value rises from -0.147 to 0.155.

Compared with TGCCGGAA, GCTGTTTA is higher in “PBM E-score” value: -0.0467 for the first, 0.0932 for the second.

Going from TAAACTAA to CGAAGAAA, the “PBM E-score” value falls from 0.212 to 0.0142.

Going from AGTGATCC to CGTCTTCA, the “PBM E-score” value rises from -0.138 to 0.0195.

First: ACGGGTGA
Second: GCCCACGC
The “PBM E-score” value of the first is higher: 0.0591 for the first, -0.177 for the second.

Compared with CATAATTC, ACGAGTCA is higher in “PBM E-score” value: -0.0886 for the first, 0.249 for the second.

Going from AAATGTAC to CCAAGAGC, the “PBM E-score” value falls from 0.193 to -0.175.

First: ATAGGCTC
Second: CCGAAACG
The “PBM E-score” value of the first is lower: -0.0162 for the first, 0.346 for the second.

Going from CCGGGAGA to CCCCAGTA, the “PBM E-score” value rises from -0.316 to -0.191.

Compared with GTCTTAAC, CAATTTAC is higher in “PBM E-score” value: -0.0222 for the first, 0.104 for the second.

Going from GATATGCC to CGAGAACA, the “PBM E-score” value rises from -0.0792 to 0.234.

First: CCGTGGTC
Second: GGAAGCCA
The “PBM E-score” value of the first is higher: -0.166 for the first, -0.418 for the second.

First: CCGCACCA
Second: CCGAGCAA
The “PBM E-score” value of the first is lower: -0.107 for the first, 0.0721 for the second.

Compared with CAGATAGA, CGTAGTGC is higher in “PBM E-score” value: -0.17 for the first, -0.0564 for the second.

Going from GAATGAAA to CTTATAAG, the “PBM E-score” value rises from -0.00715 to 0.195.

First: ACTAGATG
Second: CGGTGTCA
The “PBM E-score” value of the first is lower: -0.122 for the first, 0.0288 for the second.

First: TCCGACAA
Second: CCTGCCAC
The “PBM E-score” value of the first is higher: 0.0714 for the first, -0.386 for the second.

Compared with CTTTTCGC, TCAAAACA is lower in “PBM E-score” value: 0.093 for the first, -0.052 for the second.

First: AATTTGTC
Second: ATGCTCTA
The “PBM E-score” value of the first is higher: 0.0333 for the first, -0.19 for the second.
